In publication PMC6212790:
This is one part of the list. At the low end of the ranking the order means little.

The sequences below were run against T1, GST-Rok-C97-191 (UniProt O34857) (assay: protein binding microarray). Details: Rok is a gene silencer of Bacillus subtilis; high values mean tight binding; most listed sequences are background and not binding sites; double strand, one strand shown.
T1 sequence: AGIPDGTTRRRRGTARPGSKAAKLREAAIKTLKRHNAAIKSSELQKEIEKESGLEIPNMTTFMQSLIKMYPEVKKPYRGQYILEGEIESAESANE
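Also: rank score from −0.5 (least bound) to 0.5 (best bound).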

Sequence	binding signal [E-score]
ACGTCTTG	-0.156
ACCCGTAG	-0.0518
AATATGCT	-0.0724
CTCATTTA	-0.14
CAACGTTA	0.0959
CGCGAAAA	0.199
ATGAGGGA	-0.156
CTATTAGA	0.298
CCGCGGCA	-0.0832
CGGTGTTC	-0.0879
CCGCAGCG	-0.147
ATAAGTAT	0.215
CTATTGAC	0.0924
AGACCTCC	-0.243
CCGGTGTA	-0.119
CAGCTCCG	-0.172
ACTACGCG	0.167
CCAGAGGG	-0.325
CGGATTAC	0.11
CGACCTTC	-0.0989
CCGCCAGG	-0.365
AGGGCATG	-0.18
CCGAGTAG	0.0106
GCAACTAA	0.232
AGCTGGCG	-0.0516

Sequence	binding signal [E-score]
CTCTGGAA	0.115
ACAATGTC	0.0192
ATGAATTC	0.0443
AGAATAAC	0.125
GGACTACC	-0.0701
ATGCTAGA	0.249
CATGTTAA	0.188
CGTATCCC	0.0279
GAGTAGGA	0.0788
CAGAGTAA	-0.0121
CAAAACTA	0.401
CCGAATAG	-0.0787
GCATTTGA	-0.0443
GCGTCTCA	-0.174
GAATCAGA	0.132
GCGTAACA	0.0424
ACTTTGTA	0.17
AAGATCAT	0.0387
CTTCTCAC	-0.0581
CCAATAAC	-0.108
CCGATCCA	-0.0563
AAAATTGA	0.179
CACGTTGC	-0.135
CTGCTATC	0.0179
GTCATAAA	0.0659

Sequence	binding signal [E-score]
AATTGCCC	0.0411
AACCAGTA	0.278
ACACTGTA	0.115
CTCTCTCA	-0.0291
CCGTAAGA	-0.0585
AGCGTACG	0.159
GTACCAAC	0.0505
ATCGTAAT	0.112
AGGCACGA	-0.132
AATGCAAC	0.169
AGCGACAT	0.0701
AAGTATTG	0.0627
AAATTGCG	0.0795
CGTCATAC	0.0184
GTATCGGA	0.00862
TCTGTGCA	-0.041
AATTATCC	0.176
CGTTCCAA	0.0413
TCCAAACA	-0.00365
AATACTAT	0.35
ATCGCATG	-0.217
GTATAGAA	0.278
CCGACCAC	-0.27
CTCCCTCA	-0.13
CGGAATAA	0.132

Sequence	binding signal [E-score]
CTTGGCCC	-0.244
AAAAAGGT	-0.0081
TCTACTCA	0.188
AGGTTCAC	-0.111
AGTGTGCC	-0.185
GGCTCCAA	-0.137
ACGTTGCG	-0.251
AAAGCCGG	-0.0749
GCCCCTCC	-0.316
CAGTGAAG	-0.304
GTTAGAAC	0.125
CCCGCTAA	-0.106
CAAACGGA	0.00396
CCACGCTA	0.088
CGTTTCTA	0.369
GGGCGTAC	-0.206
TGACATAA	-0.123
CGGGAGTA	0.0612
AATGTGAC	-0.0011
CTCATTAA	-0.112
GAGGTCCA	-0.00465
ATCTGCAG	0.0153
ACGAAGAC	-0.0434
ATGCTTAC	-0.0235
ACGCGACT	-0.0126

Sequence	binding signal [E-score]
CACTTTAG	-0.00159
ATCGGACG	-0.0814
CTTTATGC	-0.0868
TGGATAAA	0.143
CTGGGGTC	-0.232
GAAAGGTA	0.197
CTATATCC	0.17
ATAATCTG	-0.0151
CTCTCCTA	0.00866
CGCTGGGA	-0.283
GATAAAAA	0.234
GAACCTCC	-0.235
GCTGGATA	-0.0998
TACCGGCA	0.0154
AGACGTAT	0.0232
CTTTGGCC	-0.0904
ATGTGCAA	-0.0855
CGATCTGC	-0.113
CGGGAAAC	-0.185
CTTTCATA	0.0805
ACAAATCA	0.0855
ACACGGGT	0.0856
AGGATGAC	0.0466
CCGCTACC	-0.0113
ATCCAGCG	-0.106

Sequence	binding signal [E-score]
TGCGCGAA	-0.119
CGACGCTA	0.0632
AGGAGAAG	0.0182
CAGTTACG	0.132
CAGAGATC	-0.211
CTATGCTA	0.0252
GGTTCATA	0.0639
GCAAAAGC	-0.141
ATCTCAGC	-0.0701
AACTTCGA	0.075
AAGGACAA	-0.0114
ATCCCTGC	-0.0639
ATTACTAC	0.407
CGTGCTTA	0.139
CTGCCCCA	-0.352
GCTTGGAC	-0.322
CTCTAGCC	-0.0809
CATAACCG	-0.11
TGGCAACA	-0.227
ACATCCGA	-0.00901
ACGATGTC	0.0153
AGTGTAAG	0.162
CAGACCGC	-0.326
CATGACGC	0.015
TACAGATA	0.293

Sequence	binding signal [E-score]
CGAGAAGC	-0.113
ATTGTGTC	-0.103
CCTGCCGA	-0.192
ACTATGCT	-0.0596
ACTATTTA	0.303
CCCCAGTC	-0.305
CCCGTGTC	-0.31
AAGGCGAA	-0.0632
ACCACACC	0.00887
CAGCTGCA	-0.0452
TATCTTGA	-0.0623
AGTCGCTG	0.0266
GAAAATCC	0.14
AGCCCGTC	-0.111
AGATACGA	0.222
CGGAGTCC	-0.199
CTCCACGC	-0.0911
CCGGAAAC	-0.277
ACGTTGCC	-0.0575
ACACCGCG	0.13
ATGCATGA	-0.101
CATATTGA	0.129
